Values joined by “and” are separate entries in the source; they are usually repeats but may differ in a detail not shown here. Equal entries are not always repeated. Out of some 340,000 compounds screened, about 12,000 (3.5%) were called active. The inconclusive results got no clear call from the source; some entries with a clear call stand among them for comparison. The call rests on the fitted dose curve; in most records, active means well fitted inhibition curve with a large enough effect; inconclusive means small, poorly fitted or top-dose-only effect, or another doubt; inactive means no such curve, though single readings can be large or run the other way. Potencies beside an inconclusive call are fits to weak or partial responses and may not hold up.
Assay: qHTS Assay for Inhibitors of Hepatitis C Virus (HCV)
Settings: Huh7.5.1 HCVcc-Cre (HCVcc is cell-culture hepatitis C virus) infection, luciferase reporter, 44 h; activity change, negative = inhibition: at 41.8 µM (top of the series) unless noted
Method in brief: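 Cells seeded at 1,000/well and cultured 4 h, then compounds added followed by HCVcc-Cre virus (~0.5 moi). After 44 h further culture, luciferase substrate was added, plates held 15 min at room temperature, and luminescence read for 15 sec.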
On the % scale 0 is the no-effect control and ±100 the full control effect; potency means the concentration at half of the fitted maximal effect; tags describe the fitted curve by direction and shape.

Structure (SMILES)	activity change, negative = inhibition	Potency
CCCCCn1c(N)c(C(=O)NCCN2CCOCC2)c2nc3ccccc3nc21	inactive: -4.51%	–
Cc1ccc(/C=N\NC(=O)Cc2cccn2C)o1	inactive: 4.08%	–
CCOC(=O)C1Sc2[nH]c(=O)sc2C(c2ccc(Cl)cc2)C1C(=O)OCC (centres undefined)	–	inconclusive: 1 µM [inhibitor, full curve, poor fit]
Cc1nc(CS(=O)(=O)c2ccccc2)cc(Sc2ccc(Cl)cc2Cl)n1	–	inconclusive: 11.2 µM [inhibitor, single point]
O=C(Nc1nc(-c2ccc(Cl)s2)cs1)c1ccncc1	–	inconclusive: 2 µM [inhibitor, full curve]
Cc1ccc(C(=O)N2CCN(c3ccc(NC(=S)NC(=O)c4cccs4)cc3)CC2)cc1	–	active: 2.24 µM
COCCNC(=S)N(CCc1c(C)[nH]c2ccc(F)cc12)Cc1ccco1	–	inconclusive: 25.1 µM [inhibitor, single point]
O=C(COC(=O)c1ccc(Br)o1)NCc1ccc(Cl)cc1	inactive: 4.61%	–
O=C1/C(=C\c2ccc(Cl)c(Cl)c2)CN(C(=O)CCN2CCOCC2)C/C1=C/c1ccc(Cl)c(Cl)c1	–	inconclusive: 3.98 µM [inhibitor, full curve]
CC(=O)Oc1ccc2c(c1)OC(c1ccccc1)CC21CC(C)(C)NC(=S)N1 (centres undefined)	–	inconclusive: 12.6 µM [inhibitor, single point]
CC(C)NS(=O)(=O)c1ccc(OCC(=O)Nc2ccc3c(c2)OCO3)c(Cl)c1	–	inconclusive: 11.2 µM [inhibitor, single point]
CCCC(C(=O)NCc1ccco1)N(Cc1ccco1)C(=O)CNS(=O)(=O)c1ccccc1 (centres undefined)	inactive: 3.65%	–
COc1ccccc1NC(=S)N(CCc1nc2cc(C)c(C)cc2[nH]1)Cc1cccnc1	–	inconclusive: 11.2 µM [inhibitor, partial curve]
NS(=O)(=O)c1cccc(NC(=S)NC(=O)c2cccc([N+](=O)[O-])c2)c1	inactive: 1.78%	–
CCNc1ccc(S(=O)(=O)N(C)C)cc1NCC(=O)Nc1ccc(F)c(Cl)c1	–	inconclusive: 20 µM [inhibitor, partial curve, poor fit]
O=C(COC(=O)/C=C/c1ccc2c(c1)OCO2)Nc1ccc(S(=O)(=O)N2CCCC2)cc1	–	inconclusive: 2.24 µM [inhibitor, partial curve]
CC(C)Nc1nnc(Sc2ccc(Cl)cc2[N+](=O)[O-])s1	–	inconclusive: 10 µM [inhibitor, partial curve]
COc1ccc(C(=O)Nc2ccc(Cl)cn2)cc1S(=O)(=O)N1CCCC1	inactive: -4.08%	–
COc1ccc(NC(=O)c2c(OC)cccc2OC)c(OC)c1	–	inconclusive: 6.31 µM [inhibitor, partial curve]
O=C(O)CCC(=O)N1N=C(c2ccc(Br)cc2)CC1c1cccc(Br)c1 (centres undefined)	inactive: 6.65%	–
O=C(NCC(=O)N1CCOCC1)c1ccc(Br)cc1	inactive: 16.6%	–
O=C(c1cccc(C(=O)N2CCN(c3ncccn3)CC2)c1)N1CCN(c2ncccn2)CC1	inactive: 10.4%	–

Structure (SMILES)	activity change, negative = inhibition	Potency
Cc1ccc(C(=O)NC(=S)Nc2ccc(S(=O)(=O)N3CCN(C)CC3)cc2)cc1	–	inconclusive: 31.6 µM [inhibitor, single point]
Cc1cnc(NC(=O)CN2CCN(c3ccccc3F)CC2)s1	inactive: -19.6%	–
N=C1C(c2nc(-c3ccc(Cl)cc3)cs2)=C(O)CN1CCCN1CCOCC1	–	inconclusive: 31.6 µM [inhibitor, single point] and inconclusive: 35.5 µM [inhibitor, single point]
CCCCn1c(N)c(N(CCOC)C(=O)c2ccc(COc3ccccc3)o2)c(=O)[nH]c1=O	inactive: 6.2%	–
COC(=O)C1=C(C)C(c2ccc(OC)cc2)NC(=S)N1 (centres undefined)	–	inconclusive: 25.1 µM [inhibitor, single point]
CCOc1cccc(/C=N/NC(=O)c2ccc3c(c2)OCCO3)c1O	–	inconclusive: 3.55 µM [inhibitor, full curve]
O=C(Oc1c(Cl)cc(Cl)c2cccnc12)c1cccc([N+](=O)[O-])c1	–	inconclusive: 31.6 µM [inhibitor, single point]
Cc1c(C)n(Cc2ccccc2)c2ncnc(N)c12	–	active: 10 µM
COc1ccc(N(C(=O)c2snc(C(N)=O)c2N)C(C(=O)NCC2CCCO2)c2ccc(C)o2)cc1OC (centres undefined)	–	inconclusive: 5.62 µM [inhibitor, partial curve]
CCn1c2ccccc2c2cc(/C(C)=N/O)ccc21	–	active: 10 µM
Cc1cccc(C(=O)NCC(=O)NC2CCC(C)CC2)c1 (centres undefined)	–	inconclusive: 3.98 µM [inhibitor, full curve, poor fit]
CN1CCN(c2ccc(S(=O)(=O)N3CCCCC3)cc2NC(=O)COc2ccc(F)cc2)CC1	–	inconclusive: 31.6 µM [inhibitor, single point]
O=C(c1cc(=O)[nH]c2ccccc12)N1CCN(S(=O)(=O)c2ccc(Cl)cc2)CC1	inactive: 11.6%	–
CCCN(CC(=O)Nc1ccccc1C)C(=O)c1ccc(Cl)c(S(=O)(=O)N2CCCC2)c1	–	inconclusive: 7.08 µM [inhibitor, partial curve]
CCc1cc2c3c(c1)C1(C(=O)N3C(C)(C)CC2C)C(C#N)=C(N)N2C(=C1C#N)Nc1ccccc12 (centres undefined)	–	inconclusive: 6.31 µM [inhibitor, partial curve]
OCC(CO)(CO)N=Cc1cc(Br)ccc1O	–	inconclusive: 1.26 µM [inhibitor, full curve, poor fit]
Cc1cccc(N2CCN(C(=O)CNC(=O)c3cccc([N+](=O)[O-])c3)CC2)c1C	–	active: 11.2 µM
Cc1cccc(C(=O)NNC(=O)/C=C/C(=O)O)c1	inactive: 5.42%	–
O=C(NCc1ccccc1)c1ccc(NC(=O)c2ccccc2F)cc1	inactive: -12%	–
Cc1ccc(CSc2nnc(CCCCCNC(=O)OC(C)(C)C)o2)cc1	–	inconclusive: 31.6 µM [inhibitor, single point]
CCn1c2ccccc2c2cc(NC(=O)COC(=O)c3ccc(NC(=O)CC#N)cc3)ccc21	–	inconclusive: 12.6 µM [inhibitor, single point]
CCn1ccnc1CN1CCCCC1C(=O)Nc1ccc(Oc2cccnc2)cc1 (centres undefined)	–	inconclusive: 28.2 µM [inhibitor, single point]

Source: PubChem BioAssay AID651820 (National Center for Advancing Translational Sciences (NCATS), 2012)
